Experimental data taken from PubChem BioAssay AID894 (National Center for Advancing Translational Sciences (NCATS), 2007).
Screen size: about 150,000 compounds; about 6,500 (4.3%) were called active. The shares of active, inactive and inconclusive entries below differ from those in the screen. Calls follow the shape of the dose curve; as a rule, active = well fitted inhibition curve with a large enough effect (not every such curve was filed as active); inconclusive = small, poorly fitted or top-dose-only effect, or another doubt; inactive = no such curve, though single readings can be large or run the other way. No potency is given beside an inconclusive call; the fits are too rough.

The molecules below were run against 15-hydroxyprostaglandin dehydrogenase [NAD(+)] (Homo sapiens) (UniProt P15428) (assay: qHTS Assay for Inhibitors of HPGD (15-Hydroxyprostaglandin Dehydrogenase)). Details: purified HPGD, NADH fluorescence kinetic, PGE2 substrate; activity change, negative = inhibition: stronger effect = lower value.
Sequence of UniProt P15428 (P15428 whole entry, looked up): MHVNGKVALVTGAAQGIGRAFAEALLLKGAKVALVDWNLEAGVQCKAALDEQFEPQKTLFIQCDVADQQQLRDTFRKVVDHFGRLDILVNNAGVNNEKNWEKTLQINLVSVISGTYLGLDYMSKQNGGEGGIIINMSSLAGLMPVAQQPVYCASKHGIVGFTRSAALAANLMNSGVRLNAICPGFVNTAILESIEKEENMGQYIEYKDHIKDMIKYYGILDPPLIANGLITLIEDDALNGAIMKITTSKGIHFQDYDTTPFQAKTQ
Method in brief: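 20 nM HPGD preincubated 15 min at room temperature with compound in 50 mM Tris-HCl pH 8, 0.01% Tween 20. Started with 1 mM NAD+ and 30 uM prostaglandin E2; NADH fluorescence (360/450 nm) read 5 times over 30-s intervals, last minus first.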
% is scaled to controls: 0 for no effect and ±100 for the full control effect; potency is read from the fitted curve at half-maximal effect; tags tell the direction and shape of the fitted curve.

| SMILES | Potency | activity change, negative = inhibition |
| --- | --- | --- |
| COc1ccc(C(=O)NNC2=CC(=O)CC(C)(C)C2)cc1OC | inconclusive [inhibitor, partial curve, poor fit] | – |
| COCCCNC(=O)CN(c1ccc(Cl)c(Cl)c1)S(C)(=O)=O | – | inactive: -6.15% |
| c1ccc(Nc2c(-c3ccco3)nc3ccccn23)cc1 | inconclusive [inhibitor, partial curve] | – |
| O=S(=O)(/N=C(\Sc1ccc(Cl)cc1)c1ccccc1)c1ccccc1 | active: 20 µM | – |
| Cc1cc2nc(-c3cccc(NC(=O)c4ccc(Br)o4)c3C)oc2cc1C | inconclusive [inhibitor, partial curve] | – |
| CCOC(=O)c1c(C)oc2c1c(C(c1ccccc1)N1CCOCC1)c(O)c1ccccc12 (stereo not given) | inconclusive [inhibitor, partial curve] | – |
| Cn1ccnc1SCC(=O)Nc1ccc(Oc2ccccc2)cc1 | inconclusive [inhibitor, single point] | – |
| CCn1c(=NC(=O)CN2C(=O)CCC2=O)sc2c(C)cc(C)cc21 | active: 14.1 µM | – |
| O=C(CSc1nc(-c2cccs2)cc(C(F)(F)F)n1)NCc1ccco1 | inconclusive [inhibitor, partial curve] | – |
| Nc1c(-c2ccccc2)cnn1-c1cccc([N+](=O)[O-])c1 | inconclusive [inhibitor, partial curve] | – |
| Nn1c(=O)c2ccccc2n2c(SCc3ccc(C(F)(F)F)cc3)nnc12 | active: 11.2 µM | – |
| CCCCOC(=O)CNc1n[nH]c(=S)[nH]c1=O | active: 25.1 µM | – |
| Cc1nnc(SCC(=O)Nc2cccc(C(F)(F)F)c2)n1Cc1ccco1 | inconclusive [inhibitor, partial curve] | – |
| COCCCNc1nc2c(-c3ccc(Cl)cc3)nnn2c2ccccc12 | inconclusive [inhibitor, partial curve] | – |
| CC(C)CCNC(=O)c1sc2ccc(S(=O)(=O)N3CCCCC3)cc2c1N | inconclusive [inhibitor, partial curve] | – |
| CNC(=O)c1ccc(-c2ccc(OC)cc2)s1 | inconclusive [inhibitor, partial curve] | – |
| C=CCCCCCCCCCCCc1ccco1 | active: 0.794 µM | – |
| O=C1c2cccc3cccc(c23)C(=O)N1OS(=O)(=O)c1ccccc1 | inconclusive [inhibitor, partial curve] | – |
| COc1cccc(C(=O)Nc2ccc(-c3nnc(-c4ccco4)o3)cc2)c1 | inconclusive [inhibitor, single point] | – |
| CN(Cc1cccs1)C(=O)COc1ccc(-c2nnco2)cc1 | – | inactive: -1.35% |
| CCc1cccc(NC(=O)NC(=O)Cn2nnc(C(=O)OC)c2C(=O)OC)c1 | – | inactive: -35% |
| CCOC(=O)c1c(-c2cccs2)csc1NC(=O)CC(C)C | inconclusive [inhibitor, partial curve, poor fit] | – |
| N#Cc1c(N)c(C#N)c(-c2ccc(O)cc2)c2c1CCCC2 | inconclusive [inhibitor, partial curve] | – |

| SMILES | Potency | activity change, negative = inhibition |
| --- | --- | --- |
| CCOC(=O)c1ccc(NC(=S)NC(=O)COc2ccccc2)cc1 | inconclusive [inhibitor, single point] | – |
| N/C(=N\OC(=O)c1ccc(Cl)c(Cl)c1)c1cccnc1 | – | inactive: -11.4% |
| COCc1nc(-c2ccc(-c3ccccc3)nc2OC)no1 | inconclusive [inhibitor, partial curve] | – |
| O=[N+]([O-])c1cc(-c2cnc3ccccc3n2)ccc1Oc1ccc(Cl)cc1 | inconclusive [inhibitor, partial curve] | – |
| O=C(NCc1ccc2c(c1)OCO2)c1cc(-c2ccccc2Cl)on1 | inconclusive [inhibitor, single point] | – |
| CC(=O)c1c(C)[nH]c(C(=O)CSc2nc3ccccc3c(=O)n2CCCN2CCOCC2)c1C | inconclusive [inhibitor, partial curve] | – |
| Cc1cc(C)nc(N(C#N)Cc2cccc3ccccc23)n1 | inconclusive [inhibitor, partial curve] | – |
| Cc1nc2ccc(NC(=O)Cc3ccc4c(c3)OCCO4)cc2s1 | – | inactive: -10.7% |
| O=C(CN1CCCCC1)Nc1cccc2c1OCO2 | inconclusive [inhibitor, partial curve] | – |
| CC(Sc1nnc(NCc2ccccc2)s1)C(=O)Nc1ccc2c(c1)C(=O)c1ccccc1C2=O (stereo not given) | active: 14.1 µM | – |
| Nc1ccccc1S[C@@H](C[N+](=O)[O-])c1ccc2c(c1)OCO2 | active: 3.16 µM | – |
| CCc1ccccc1NC(=O)c1cnc2scc(C)n2c1=O | inconclusive [inhibitor, single point] | – |
| C=CCn1c(=N)c(C(=O)NCCCOC)cc2c(=O)n3ccccc3nc21 | inconclusive [inhibitor, partial curve] | – |
| Cc1cccc(C(=O)Nc2sc(C)c(-c3ccccc3)c2C#N)c1 | inconclusive [inhibitor, single point] | – |
| CCOc1cc(/C=N/n2cnnc2)ccc1O | inconclusive [inhibitor, partial curve] | – |
| O=C(CSc1nnc(-c2cccnc2)n1CCc1ccccc1)N1CCCCC1 | – | inactive: -3.42% |
| CCOC(=O)c1cc2c(=O)n3cc(C)ccc3nc2n(Cc2cccnc2)c1=N | inconclusive [inhibitor, full curve] | – |
| N#CC1=C(SCC(=O)Nc2ccccc2)NC(=O)CC1c1ccc(O)cc1 (stereo not given) | – | inactive: -1.72% |
| O=C(c1ccc2c(=O)n(Cc3ccco3)c(=S)[nH]c2c1)N1CCN(Cc2ccccc2)CC1 | – | inactive: -5.54% |
| Cc1nc2ccccc2c(-c2ccccc2)c1CC(=O)O | – | inactive: -4.21% |
| CCC(=O)NNc1cccc(Cl)n1 | – | inactive: -2.62% |
| Cc1cc(/C=N/NC(=O)CC2(C)OCCO2)c(C)n1-c1ccc(Cl)c(Cl)c1 | inconclusive [inhibitor, partial curve] | – |
